The source gives no read counts; variants with many changes may rest on few reads.
B1: LINE1-mini (parent)
chain: GGCAGAGCUCAACACAGCGUGGCAAAGUGGCUGUGGCUAGACUGCC

Variants of: B1
Experiment: self-cleavage, relative activity (ratio to wild type); higher = more cleavage; in vitro, sequencing; the parent is a self-cleaving ribozyme

Variant	self-cleavage
A4C G7C U32A C42U	0.12
C3U U38C C45U	0.08
A4C A16U A26C G44C	0
A4C C23U G29A G36U	0.09
A4C C42A G44C	0.19
A4C A16C G35C G44A C46A	0.03
A4C G21C A26C C46U	1.37
A4C A12U G30C C31U G33C C42A	0.01
A4C C8A A12G G35U	0.06
A4C C13G C18U G27A U32C	0.04
A4C C10U G30C U32G	0.01
A4C A6C G21A G27C U32A G35U	0.13
A4C C13U U28C	0.19
A4C G19A A24U G33U C46U	0.07
A4C C15U A16C C46A	0.05
A4C G7U G36U C37A	0.18
C3U U9A C42A	0.12
A4C C23U A25G C31U	0.08
A4C C15U G17A U32G	0.2
A4C G5U A6U G40U	0.04
A4C C13A C23A	0.1
A4C A16C G22U A24U A25U	0.07
A4C A16C G22A A24G A41U	0
C3U U28G G35A	0.03

Variant	self-cleavage
A4C C10A C13A A26U U34A	0.02
A4C C10U G27U	0.32
A4C G7C A12U U28G G40C G44A	0.39
C3U U34A G36U C42G	0.15
A4C A11U U38A C42A	0.02
A4C G19A G22C C46U	0.17
A4C G19A U38G A41U U43A	0.01
A4C C10U U28G G40U	0.01
A4C A11G A14C G17A G19U A26G	0.01
A4C C8U C42G	0.3
A4C A24G G30U	0.04
A4C C31U C45U C46G	0.05
A4C C8U C15U G33U C37A	0.1
A4C G7C A39G C46G	0.05
C3U U28C G29U	0.18
A4C G17A U20G U38C C45A	0.02
A4C C8G C31G G44A	0.02
C3U U9C C18A G35A C37U G44A	0.01
A4C G5U C15A G22A C42G	0.16
A4C G7C C10A A14G	0.06
A4C G7C C15G C18U G21A G40A	0.13
A4C A25G A39U C42A	0.72
A4C A11U C23G C37U	0.01
A4C G5U G17A C46G	0.01

Variant	self-cleavage
A4C A12G G19U	0
A4C C15U G30U G35C	1.84
C3U U9A C10A	0.03
A4C A6G G30C U32A	0.03
A4C G17C U20G	0
A4C C10A C18A C46U	0.02
A4C A39C G44A	0.01
A4C A26U G35C G40U	0.09
A4C G21A A39C	0.06
C3U U20C U38C	0.49
A4C G5C C18U	0
C3U U20G G22U G36U	0.14
A4C C10A G44U	0
A4C C10A C13U G19C U20A	0.01
A4C C13U C37G	0.19
A4C C8U G17C G21C C31G A39U	0.02
A4C G7C C18U G30A	0.33
A4C A12G U28G	0.14
C3U U20A G36A C42A	0.61
A4C C31G G44A	0.01
A4C A6G G22A	0.04
A4C A24U A41C	0.12
A4C C10U A16G U28C G33U	0.01
A4C C8A C18A U20C G29C	0.09

Variant	self-cleavage
A4C G17U C23A	0.11
A4C G19A A26G U28G C46U	0.16
A4C G5A C13A A26G U32C	0.04
A4C A6G A12C	0.02
C3U U38G A41C C45U	0.03
A4C A11U G33A	0.03
A4C A11U A16C G19A C23A G35C	0.02
C3U U28A G35A	0.04
A4C A24U U32C G35U	0.29
A4C C13U G29C G35A C45A	0.35
A4C A11U A24U	0.03
C3U U20A G35U C45U	0.08
A4C G17U G35U	0.04
C3U U9A C37A	0.4
A4C C8A A16U G22C U38C	0.22
A4C A6U C23G A24C C42A	0.02
A4C C10U C23U A24U G33U	0.02
C3U U38A G40U	0.06
A4C A14C A41C C45A	0.02
A4C A16C G30C	0.11
A4C C15U U32A A41C	0.28
A4C G21C C31U G44U	0.01
A4C G5C C31A C42A	0.11
C3U U9A C23A A24U	0.17

Variant	self-cleavage
C3U U32C C42U	0.05
A4C G7A G22C G29A U43A	0.09
C3U U28C C31A U43C	0.01
A4C A12U G29A C37U G40A U43A	0.28
C3U U20G C31U A41C	0.07
A4C G5A C10G C15A	0.02
A4C C13G C45A	0.11
A4C G19U A25C G29A C37A G44C	0.05
A4C A12C C31G U38A	0
A4C G5A C13U G22C C46A	0.05
A4C A11U G17A C18A G21U	0.01
A4C G5C U32A A41C C45A	0.06
A4C A11U G22C U43A	0.01
C3U U9C A11G A24G	0.02
A4C A11U G27U G29A	0.02
A4C C8U G17A C23U C37A	0.74
A4C C10A U34G C42A	0.01
A4C C13U G27U U32G	0.06
A4C G5C U28G C45G	0
A4C G5U A11C C13A G33A G40C U43G	0
A4C C10U A14C G19A G27U C45G	0.01
C3U U9C C13U G17C G36A	0.05
A4C C15U C18G	0.06
A4C A25C U43A G44U	0.05

Variant	self-cleavage
A4C C18A G30A U43A	0.05
A4C A39G G40C	0.05
A4C G5U C23A G44A	0.08
A4C G21A C23G	0.7
A4C C10A G21A A25C	0.03
A4C G5A G19A G35U G40A	0.19
A4C C8G A11U G21A	0.01
C3U U28A G29U	0.03
A4C C10U C18A G27U G29U U32C G35U	0.04
A4C G19C A24U A25U G29C U32A	0.02
A4C C8A C10G A16C	0.02
C3U U9A G29A C42U	0.78
A4C A14G C15A C37A	0.03
A4C C10A C37U	0.04
C3U U20C A26U	0.13
A4C A11G A26U U28G A41C C46G	0.02
A4C C10U A39G	0.01
A4C C10A A24U G33A	0.02
A4C C8G U34A C37U G40C C46G	0.02
A4C C13G C18U	0.06
A4C C42G G44U	0.04
A4C A6C U9A G21A G40C	0.17
C3U U20A A25U C42U	0.03
A4C C18A C31A G33U	0.02

Variant	self-cleavage
A4C C8A G17U A24C G35U	0.05
A4C G5C A25U	0.06
A4C A11U A25G C37A C45U C46A	0
A4C G5C G7C G33U U34C C37U	0.17
A4C A16G U20G U38C C45G	0
A4C C8U A16C G17C	0.11
C3U U28G C31A C37G	0.09
C3U U9G C23A	0.05
A4C A14G C15G G35A G36A	0.01
A4C G5A C10U A11C	0.02
A4C G7C U28A U32A G33U U38C	0.02
A4C A14U U32G C37A A41U	0.2
A4C A14G A24G C37A	0.02
A4C A6C C13U C15A G30A	0.06
C3U U9A C10G C45G	0.03
A4C A14U G27U G29A	0.29
C3U U9A G17C G27C G35U C37G	0.06
A4C G5U G7C	0.05
A4C C23G G44U	0.09
A4C G7C C15G C37A	0.03
A4C A25U C42U U43A	0.04
A4C C10A A41U G44C C46G	0.01
A4C G7C G21C G29U G35C G36C U43A C46A	0.07

Source: the RNAGym collection of RNA variant scans (doi:10.7554/elife.90254)
